PubChem BioAssay AID624296 (National Center for Advancing Translational Sciences (NCATS), 2012)
Out of some 350,000 compounds screened, about 9,900 (2.8%) were called active. Inconclusive means that the source gave no clear call. Such entries were picked first, then a sample of the others. Calls come from the whole dose curve; as a rule, active = well fitted activation curve with a large enough effect; inconclusive = small, poorly fitted or top-dose-only effect; inactive = no such curve, though single readings can be large or run the other way. No potency is given beside an inconclusive call; the fits are too rough.
Potency is the fitted concentration of half-maximal effect; tags give direction and shape of the fitted curve.

Assay: A quantitative high throughput screen for small molecules that induce DNA re-replication in MCF 10a normal breast cells. For activity, positive = re-replication: % of control where 0% means no effect. Note: nearly all actives have a fitted effect of over 50% in size.
Conditions: MCF 10A DNA re-replication, Hoechst nuclear intensity, 48 h; activity, positive = re-replication: at 46.1 µM (top of the series)
For `COC(=O)c1cc2occc2n1CC(=O)Nc1cc(OC)cc(OC)c1`, the “activity, positive = re-replication” value was inactive: -17.5%.
In the case of `Cc1cc(NC(=O)Cn2cnc3sc(C)c(-c4ccccc4)c3c2=O)no1`, the Potency is reported as inconclusive [activator, partial curve, poor fit].
For `Cc1c(C(=O)NCc2ccc3c(c2)OCO3)oc2ccc(Br)cc12`, the Potency was inconclusive [activator, single point].
In the case of `CCC(C)C(N=C1NS(=O)(=O)c2ccccc21)C(=O)N1CCC(C)CC1` (configuration not stated), the “activity, positive = re-replication” value is reported as inactive: 11.9%.
For `COc1ccc(/C=C2\OC(=S)N(C)C2=O)cc1`, the Potency was inconclusive [activator, single point].
With `S=c1[nH]nc(CNc2ccc(Cl)cc2)n1Cc1ccccc1` the Potency was inconclusive [activator, single point].
With `c1ccc(-c2nc(N3CCCCC3)nc3ccccc23)cc1` the Potency was inconclusive [activator, single point].
With `CNc1ccc(Br)cc(C(=O)/C=C/c2ccc3c(c2)OCO3)c1=O` the Potency was inconclusive [activator, single point].
With `Cc1oc(C(C)(C)C)cc1C(=O)N1CCN(C(c2ccccc2)c2ccccc2)CC1` the Potency was active: 11.6 µM.
In the case of `COc1cc(NS(=O)(=O)c2ccc(N/C=C\C(=O)c3ccc(C)cc3)cc2)nc(OC)n1`, the Potency is reported as inconclusive [activator, partial curve].
With `COc1cccc(NC(=O)CSc2nc3ccccc3c(=O)n2CCCC(=O)N2CCCC2)c1` the Potency was inconclusive [activator, partial curve, poor fit].
For `O=C1C=CC(O)(c2cc(=O)c3c(O)cc(O)cc3o2)C=C1`, the Potency was active: 1.46 µM.
With `O=C(Nc1ccc(-c2csc(Nc3cccc(C(F)(F)F)c3)n2)cc1)c1ccccc1` the Potency was active: 18.4 µM.
With `O=C(N/N=C/c1ccccn1)c1cc(-c2ccc(Br)cc2)nc2ccccc12` the Potency was inconclusive [activator, partial curve].
With `COc1cc(C2CC(=O)c3c([nH]c(C(=O)OCCOC(C)C)c3C)C2)cc(OC)c1OC` (configuration not stated) the “activity, positive = re-replication” value was inactive: 14.6%.
In the case of `N#Cc1ccccc1NC(=O)COC(=O)c1ccc2c(c1)OCO2`, the “activity, positive = re-replication” value is reported as inactive: -6.89%.
In the case of `COc1cc(OC)cc(C(=O)N[C@H](C(=O)OCC(=O)NC(=O)c2cccn2C)C(C)C)c1`, the Potency is reported as inconclusive [activator, full curve].
In the case of `CN(CC(=O)Nc1ccc(Cl)c(Cl)c1)C(=O)C12CC3CC(CC(C3)C1)C2`, the Potency is reported as inconclusive [activator, partial curve, poor fit].
For `COc1ccc(CC(=O)Nc2ccc3c(c2)CCC3)cc1OC`, the “activity, positive = re-replication” value was inactive: 2.03%.
With `C/C(=N\NC(=O)COc1ccc(C(C)(C)C)cc1)c1cc2ccccc2o1` the Potency was inconclusive [activator, partial curve, poor fit].
For `Cc1ccc(C(=O)C[n+]2ccc3ccccc3c2)cc1`, the “activity, positive = re-replication” value was inactive: -0.536%.
In the case of `O=C(C[n+]1ccc(Cc2ccccc2)cc1)Nc1ccc([N+](=O)[O-])cc1Cl`, the Potency is reported as inconclusive [activator, partial curve, poor fit].
With `CCOC(=O)Cc1csc(SCC(=O)Nc2ccc3[nH]c(=O)[nH]c3c2)n1` the Potency was inconclusive [activator, full curve, poor fit].
For `O=C(COc1ccccc1)Nc1ncn[nH]1`, the “activity, positive = re-replication” value was inactive: 14.5%.
In the case of `O=S(=O)(c1cccc2nonc12)N1CCN(c2ccc(F)cc2)CC1`, the Potency is reported as inconclusive [activator, full curve, poor fit].
In the case of `O=C(NCCc1ccccc1)/C(=C/c1ccco1)c1ccccc1`, the Potency is reported as inconclusive [activator, full curve, poor fit].
For `COc1ccc(Br)cc1/C=N/N1CCN(Cc2ccccc2Cl)CC1`, the Potency was inconclusive [activator, single point].
With `CCN1C(=O)/C(=C/c2cn(-c3ccccc3)nc2-c2cccnc2)SC1=S` the Potency was inconclusive [activator, single point].
With `O=C(Cc1nnc(NC(=O)c2ccccc2)s1)N/N=C/c1cccc(O)c1` the Potency was inconclusive [activator, single point].
In the case of `N#Cc1c(-c2ccc(F)cc2)noc1N`, the Potency is reported as inconclusive [activator, single point].
For `C=CCn1c(=O)c(C(=O)Nc2ncccc2O)c(O)c2ccccc21`, the Potency was inconclusive [activator, partial curve, poor fit].
For `CCOC(=O)C1=C(C)N=c2s/c(=C/c3cccc([N+](=O)[O-])c3O)c(=O)n2C1c1ccc(OC)cc1OC` (configuration not stated), the Potency was inconclusive [activator, partial curve, poor fit].
With `CC(C)(C)n1nnnc1C(c1ccc(C(F)(F)F)cc1)N(Cc1ccc(F)cc1)Cc1ccco1` (configuration not stated) the Potency was inconclusive [activator, partial curve, poor fit].
For `O=C(Nc1ccnc(-c2ccncc2)n1)c1ccc(Cl)cc1`, the “activity, positive = re-replication” value was inactive: 4.4%.
With `COc1cc(C2c3sc(=O)[nH]c3SC3C(=O)N(c4ccc(C)cc4)C(=O)C32)ccc1O` (configuration not stated) the Potency was inconclusive [activator, full curve, poor fit].
In the case of `Cc1cc(C)cc(-n2c(O)c(C=NC3CCS(=O)(=O)C3)c3ccccc3c2=O)c1` (configuration not stated), the Potency is reported as inconclusive [activator, single point].
In the case of `CCN(C(=O)/C=C/c1ccccc1)C1CCCCC1`, the Potency is reported as inconclusive [activator, partial curve, poor fit].
With `COc1ccccc1C(=O)NCCC(=O)NCCC12CC3CC(CC(C3)C1)C2` the Potency was inconclusive [activator, partial curve, poor fit].
With `Cc1cc(NC(=O)/C=C/c2cccc(F)c2)n(-c2nc3ccccc3[nH]2)n1` the Potency was active: 16.4 µM.
With `COc1ccccc1Nc1nnc(SCC2CCCCO2)s1` (configuration not stated) the Potency was inconclusive [activator, single point].
For `COCCN(CC(=O)Nc1cccc(C)c1C)C(=O)c1cc(-c2cccs2)nn1-c1ccccc1`, the “activity, positive = re-replication” value was inactive: 4.39%.
With `COC(=O)c1ccc(CCc2cc(O)c(Br)cc2O)cc1` the Potency was inconclusive [activator, partial curve].
For `CCOc1ccc(CC(=O)C2C(=O)CC(C)(C)CC2=O)cc1OCC`, the Potency was inconclusive [activator, partial curve, poor fit].
With `COCCOC(=O)C1=C(N)Oc2c(oc(CO)cc2=O)C1c1ccccc1F` (configuration not stated) the “activity, positive = re-replication” value was inactive: -4.14%.
For `CC(=O)N(C)c1ccc(OCC(O)Cn2c3ccc(Cl)cc3c3cc(Cl)ccc32)cc1` (configuration not stated), the Potency was inconclusive [activator, single point].
In the case of `Cc1cccc(N2CCN(C(=O)c3ccc(CS(=O)Cc4ccc(Cl)cc4)o3)CC2)c1C` (configuration not stated), the Potency is reported as inconclusive [activator, partial curve, poor fit].
In the case of `O=C(c1ccccc1F)N1CCN(c2ccccc2)CC1`, the “activity, positive = re-replication” value is reported as inactive: -6.33%.
In the case of `COc1ccc(S(=O)(=O)N(C)CC(=O)Nc2ccc(C(N)=O)cc2)cc1OC`, the “activity, positive = re-replication” value is reported as inactive: -3.66%.
For `Cc1ccc(-c2cccc(C(=O)NCc3ccccc3)n2)c2ccccc12`, the Potency was inconclusive [activator, full curve, poor fit].
With `COc1cc(/C=N/NC(=O)c2cc(-c3cccs3)nc3ccccc23)ccc1O` the Potency was inconclusive [activator, full curve, poor fit].
For `CC(C)N(C(=O)CN1C(=O)NC(c2ccccc2)(c2ccccc2)C1=O)C(C)C`, the “activity, positive = re-replication” value was inactive: -3.97%.
For `COc1ccc(-n2nnc3c(SCC(=O)NCc4ccco4)ncnc32)cc1`, the Potency was inconclusive [activator, partial curve, poor fit].
For `O=C(/C=C\c1ccccc1)Oc1cccc2cccnc12`, the Potency was inconclusive [activator, partial curve, poor fit].
In the case of `Cc1n[nH]c(C)c1CCOc1ccc(C(C)C)cc1`, the Potency is reported as inconclusive [activator, single point].
With `CCOC(=O)C1(Cc2ccccc2C(F)(F)F)CCN(C(C)CCn2cccn2)CC1` (configuration not stated) the “activity, positive = re-replication” value was inactive: 2.97%.
In the case of `C=CC(=O)NCCCc1cc(C(C)(C)C)c(O)c(C(C)(C)C)c1`, the “activity, positive = re-replication” value is reported as inactive: 3.96%.
For `CCOC(=O)Cn1c(=O)c2c(nc(N3CCCCC3)n2C)n(C)c1=O`, the Potency was inconclusive [activator, partial curve, poor fit].
With `O=C1OCCN1C(=O)[C@H]1[C@H](c2ccc(F)cc2)C(c2ccc(F)cc2)=NN1c1ccccc1` the Potency was active: 5.8 µM.
With `O=C(CCC(=O)NNc1nc2ccccc2c2nc(-c3ccccc3)nn12)NCCCN1CCCC1=O` the Potency was inconclusive [activator, partial curve, poor fit].
With `COc1ccc(N2CCN(CCCNC(=O)C(=O)c3c[nH]c4ccccc34)CC2)cc1` the Potency was inconclusive [activator, partial curve, poor fit].
For `CCc1ccc(NC(=O)CCc2ccc(C)o2)cc1`, the Potency was active: 16.4 µM.
For `CC(=O)c1cc(CN2CCC(C(=O)Nc3cccc(-c4cscn4)c3)CC2)cs1`, the Potency was inconclusive [activator, partial curve, poor fit].
In the case of `S=C(Nc1ccccc1Cl)N1CCN(c2ccccn2)CC1`, the “activity, positive = re-replication” value is reported as inactive: 2.35%.
With `O=C(Nc1ccccc1C(=O)N1CCCC1)c1ncoc1-c1cccc(Cl)c1` the Potency was inconclusive [activator, single point].
For `COc1ccc(C(=O)COc2ccccc2C#N)cc1`, the Potency was active: 16.4 µM.
With `COc1ccccc1N(C)S(=O)(=O)c1ccc(C(=O)OCC(=O)N(C(C)C)C(C)C)cc1` the “activity, positive = re-replication” value was inactive: -6.69%.
In the case of `CN(Cc1ccccc1)S(=O)(=O)c1ccc(Cl)c(C(=O)NCCCN2CCCC2=O)c1`, the Potency is reported as inconclusive [activator, single point].
